Structures are written as SMILES. Screen size: about 52,000 compounds; about 4,300 (8.3%) were called active. Rule as the data show it: active = survival mostly below about 52% (no sharp cut-off); inactive = mostly above about 56%. The list shows a part of the results.

This passage reports survival results from PubChem BioAssay AID463173 (ICCB-Longwood Screening Facility, Harvard Medical School, 2010).

The subject of this assay is DeltatarO mutant. In words: growth inhibition of S. aureus wild type versus tarO mutant, primary screen, teichoic acid synthesis inhibitors, RN4220, OD600 (AID 463173). The settings on record: OD600, 18 h, active compounds read low, screened at 18.75 µg/mL (by protocol).
For the molecule `O=C(CN1C(=O)c2ccccc2Sc2ccc(C(=O)N3CCOCC3)cc21)Nc1ccc(Cl)cc1F`, the survival was inactive: 94%.
As to `CCOc1ccc(-c2nnc(SCC(=O)Nc3cccc(C#N)c3)o2)cc1`, the survival is active: 48%.
As to `CCCCOC(=O)c1c(C)oc2c1cc(NS(=O)(=O)c1cc(OC)ccc1OC)c1ccccc12`, the survival is inactive: 68%.
Consider `CC1CCN(C(=O)Cn2c(-c3cccs3)cc3cc(Cl)ccc32)CC1`, for which the survival was inactive: 78%.
For the molecule `COc1cccc(NC(=O)Nc2ccc3c(c2)N(C)C(=O)c2ccccc2S3)c1`, the survival is inactive: 51%.
Consider `COc1ccc(-c2c(C)c3ccc(O)c(CN4CCOCC4)c3oc2=O)cc1OC`, for which the survival is inactive: 129%.
As to `CCOc1ccc(-c2cc3c(=O)n(CC(=O)NCc4ccc(F)cc4)ccn3n2)cc1`, the survival is inactive: 80%.
As to `COc1cccc2cc(-c3nc(-c4ccc(Cl)cc4)cs3)c(=O)oc12`, the survival was inactive: 83%.
Take `CCOC(=O)c1cccc(NC(=O)CCS(=O)(=O)c2ccc3c(c2)CCN3C(=O)CC)c1`: the survival was inactive: 85%.
Consider `O=C(c1ccc(Cl)cc1)n1nc(-c2cccnc2)nc1NCc1ccc(F)cc1`, for which the survival was active: 43%.
Turning to `COC(=O)c1oc2nc(C)cc(C)c2c1N`, the survival was inactive: 78%.
For `CCn1c(=O)c2sccc2n2c(CCCC(=O)N3CCN(c4ccc(F)cc4)CC3)nnc12` the value was inactive: 96%.
With `CCN(CC)c1ccc2cc(-c3nc4sc5c(c4c(=O)[nH]3)CCC(C(C)(C)C)C5)c(=O)oc2c1` (configuration not stated) the figure was inactive: 82%.
On to `O=C(NCc1ccco1)Nc1ccccc1`, for which the survival is inactive: 94%.
`CCN1CCN(Cc2c(O)ccc3oc(C)c(C(=O)Nc4cccc(C(F)(F)F)c4)c23)CC1`: the survival was inactive: 104%.
Regarding `COc1cccc(NC(=O)c2c(C)oc3nc(C)nc(N4CCCC4)c23)c1`, the survival was inactive: 66%.
As for `COc1ccc(CC(=O)Nc2nc3c(s2)CCCC3)cc1`, the survival is inactive: 95%.
In the case of `Cc1ccc2c(c1)N(C(=O)CCC(=O)NCc1cccc(F)c1)CC(C)O2` (configuration not stated), the survival was inactive: 78%.
Consider `Cc1cccc(C)c1NC(=O)c1cc(S(=O)(=O)N2CCc3ccccc3C2)ccc1F`, for which the survival was inactive: 129%.
`O=c1oc2ccccc2cc1-c1cn2cc(Cc3cc(Cl)ccc3Cl)sc2n1`: the survival is active: 52%.
With `COc1ccc(NC(=O)C2CCCN(S(=O)(=O)c3ccc(F)cc3)C2)cc1` (configuration not stated) the figure was inactive: 76%; with `CC(=O)N1CCN(C(=O)C2(NC(=O)Nc3ccc(C)cc3)CCCCC2)CC1`, inactive: 102%; with `CCOc1ccc(N2C(=O)CC3(CC(C(=O)OCc4ccccc4)=NN3)C2=O)cc1` (configuration not stated), inactive: 76%.
On to `CCN(CC)S(=O)(=O)c1ccc2c(c1)N(CC(=O)Nc1cccc(C#N)c1)C(=O)CO2`, for which the survival is inactive: 75%.
Consider `CCc1nnc(NC(=O)CSc2nc3c([nH]c4ccccc43)c(=O)n2-c2ccc(Cl)cc2)s1`, for which the survival was inactive: 93%.
`FC(F)(F)c1cc(-c2ccccc2)nc2cc(-c3ccccc3)nn12`: the survival is inactive: 59%.
Consider `Cc1ccc(O)c(NC(=O)C2=CC(c3ccco3)=NS(=O)(=O)N2C)c1`, for which the survival is inactive: 87%.
For `CCOC(=O)c1c(C)[n+]([O-])c2ccc3c(non3O)c12`, the survival is inactive: 79%.
For the molecule `COC(=O)c1ccc(NC(=O)C(=O)NCCc2csc(-c3ccc(F)cc3)n2)cc1`, the survival is inactive: 117%.
As for `O=C(CSc1ncccc1C(=O)Oc1ccccc1Cl)Nc1ccc(C(F)(F)F)cc1Cl`, the survival is inactive: 77%.
On to `COc1ccc(N2CCN(Cc3nc4c(c(=O)[nH]c(=O)n4C)n3Cc3ccccc3C)CC2)cc1`, for which the survival is inactive: 119%.
With `Cc1csc2nc(COC(=O)CNC(=O)c3ccccc3)cc(=O)n12` the figure was inactive: 78%; with `COc1ccc(NC(=O)CNC(=O)Cn2c(C)cc3ccccc3c2=O)c(OC)c1`, inactive: 62%; with `O=C(c1ccccc1)N1CCN(CCc2ccccn2)CC1`, inactive: 49%.
Consider `CCOc1ccc(-n2cc(-c3ccccc3)c3c(Nc4cccc(F)c4)ncnc32)cc1`, for which the survival was inactive: 85%.
`COC(=O)C1=C(C)Nc2ccccc2S1`: the survival was inactive: 99%.
Turning to `COc1cccc(C(=O)Nc2c(C(=O)Nc3ccc(F)cc3)oc3ccccc23)c1OC`, the survival was inactive: 60%.
For `Cc1ccc(NC(=O)c2cnc(N3CCCC3)nc2C)cc1F`, the survival is inactive: 89%.
Turning to `CCOc1ccc(C(=O)Nc2nnc(SCc3cc(=O)n4ccccc4n3)s2)cc1`, the survival is inactive: 84%.
With `Cc1cc(F)ccc1NC(=O)Cn1cc(S(=O)(=O)NC(C)C)c(S(=O)(=O)NC(C)C)c1`, the survival was inactive: 90%.
As for `CCCCSc1nc2sc3c(c2c(=O)n1-c1ccccc1C)CC(C)(C)OC3`, the survival is inactive: 48%.
As to `COc1ccccc1C(=O)Nc1nc2n(n1)C(c1ccc(F)cc1)C=C(c1ccc(Cl)cc1)N2` (configuration not stated), the survival was inactive: 49%.
As for `CCOC(=O)c1cc(S(=O)(=O)NCc2ccc(Cl)cc2)[nH]n1`, the survival is inactive: 87%.
Regarding `CCc1ccc(CNC(=O)C2CCCN(c3nnc(C)c4c(C)n(-c5ccccc5)nc34)C2)cc1` (configuration not stated), the survival is inactive: 92%.
For `COc1ccccc1C(=O)N/C(=C\c1cn(S(=O)(=O)N(C)C)c2ccccc12)C(=O)NCCCn1ccnc1`, the survival was inactive: 102%.
For the molecule `Cc1ccccc1CSc1ncc(Cl)c(C(=O)Nc2nc3ccc(F)cc3s2)n1`, the survival was inactive: 100%.
`COc1ccccc1C(=O)Nc1ccc2nc(SCC(=O)N3CCCc4ccccc43)sc2c1`: the survival is inactive: 86%.
Regarding `COc1ccc(OC)c(NC(=O)C2CCCN(S(=O)(=O)c3ccc4c(c3)CCCC(=O)N4)C2)c1` (configuration not stated), the survival was inactive: 97%.
Consider `Cc1cc2n(n1)CCC(=O)N2Cc1ccc(C(=O)Nc2cc(Cl)ccc2C)cc1`, for which the survival is inactive: 85%.
`COc1ccccc1NC(=O)C1=C(C)Nc2nc(SC)nn2C1c1ccccc1Cl` (configuration not stated): the survival was inactive: 87%.
Regarding `CCOC(=O)c1c(NC(=O)c2ccc(OCC)c(Br)c2)sc2c1CCCC2`, the survival is inactive: 74%.
For the molecule `CC(=O)Nc1cc(C(=O)NCc2ccc(F)cc2)ccc1Sc1ccc(F)cc1`, the survival was inactive: 94%.
Take `Cc1cc2oc(=O)c(CC(=O)NCCc3ccccc3F)c(C)c2c2occ(C(C)(C)C)c12`: the survival was inactive: 86%.
Consider `CCCCN(C(=O)C1CCC(CNS(=O)(=O)c2cccc3nsnc23)CC1)c1ccccc1` (configuration not stated), for which the survival was inactive: 80%.
For `CC(=O)Nc1ccc(NC(=O)CN(C)S(=O)(=O)c2ccc3c(c2)CCCC(=O)N3)cc1` the value was inactive: 84%; for `COc1ccc(CC(=O)NCC(c2cccs2)S(=O)(=O)c2ccc(F)c(C)c2)cc1` (configuration not stated), inactive: 105%.
With `Cc1ccc(S(=O)(=O)Nc2nnc(CC(C)(C)C)s2)cc1` the figure was inactive: 87%.
Regarding `Cc1ccc(C)c(S(=O)(=O)c2nnn3c2nc(N2CCN(C)CC2)c2sccc23)c1`, the survival is inactive: 103%.
For `COc1ccc(-c2[nH]nc3nc(-c4cc(Br)ccc4OC)cc(C(=O)O)c23)cc1` the value was inactive: 88%.
Turning to `Cc1c(C(=O)OC2CCCCC2)[nH]c2c1C(=O)CC(c1ccc(F)cc1)C2` (configuration not stated), the survival is inactive: 76%.
In the case of `CC(C)CC(=O)NCC(c1ccc2c(c1)OCO2)N1CCN(c2ccccc2)CC1` (configuration not stated), the survival is inactive: 85%.
As for `O=C(CN1CCCN(Cc2cccc(Cl)c2)S1(=O)=O)Nc1ccc2c(c1)OCCO2`, the survival was inactive: 78%.
As to `CC1=NN(c2cccc3ccccc23)C(=O)C1`, the survival was inactive: 102%.
For `CCC(=O)Nc1ccc(Cl)c(-c2nc3ccccc3[nH]2)c1` the value was active: 49%; for `COc1ccccc1CN1CCC(CNC(=O)c2cnn(-c3ccccc3Cl)c2C2CCN(C(=O)OC(C)(C)C)CC2)CC1`, inactive: 67%; for `COc1ccccc1CNC(=O)CCc1c(C)nc2cc(-c3ccc(Cl)cc3)nn2c1C`, inactive: 129%.
Turning to `Cc1cccc(NC(=O)c2ccc(-n3c(C)nnc3C)cc2)c1`, the survival is inactive: 88%.
For `Cc1ccc(-n2ncc3c(N4CCCCCC4)ncnc32)cc1Cl`, the survival is inactive: 102%.
Regarding `O=S1(=O)c2ccccc2N(Cc2cccc(F)c2)c2ccccc21`, the survival was inactive: 55%.
Regarding `COc1ccc(NC(=O)c2ccco2)cc1NC(=O)c1cc(Cl)ccc1OC`, the survival is inactive: 49%.
For `CSc1ccc(-c2nnn(CC(=O)Nc3sc4c(c3C#N)CCC(C(C)(C)C)C4)n2)cc1` (configuration not stated) the value was inactive: 82%; for `CCCCOc1ccc(C(C)NC(=O)CN2C(=O)CSc3ccc(S(=O)(=O)N4CCOCC4)cc32)cc1` (configuration not stated), inactive: 65%; for `CCCN(CCC)C(=O)Cn1c(=O)n(-c2cccc(C)c2)c(=O)c2c1c1cc(OC)ccc1n2C`, inactive: 64%.
As to `COc1cccc(-c2cc(C(F)(F)F)nc(NCCc3ccc(OC)c(OC)c3)n2)c1`, the survival is active: 4%.
Consider `Cc1cccc(CCNC(=O)c2cc(S(=O)(=O)N3CCCCC3)c[nH]2)c1`, for which the survival is inactive: 74%.
For `Cc1c2cnn(-c3ccccc3)c(=O)c2c(C)n1C(C)C(=O)Nc1ccccc1C(F)(F)F` (configuration not stated), the survival is inactive: 75%.
Regarding `Cc1cccc(N2CCN(C(=O)c3ccc4c(c3)N(Cc3ccccc3)C(=O)c3ccccc3S4(=O)=O)CC2C)c1` (configuration not stated), the survival was inactive: 63%.
Consider `CCn1c(=O)ccc2cc(OC)ccc21`, for which the survival was inactive: 73%.
With `Cc1ccc(C)c(NC(c2ccccc2)c2nnc(-c3ccccc3F)o2)c1` (configuration not stated) the figure was active: 4%.
Turning to `Clc1ccc(CCNc2nc3cc(Cl)c(Cl)cc3n3cnnc23)cc1`, the survival is inactive: 91%.
In the case of `COc1ccc(CCN2C(=O)N(c3cccc(C)c3)C(=O)C2CC(=O)Nc2ccccc2)cc1OC` (configuration not stated), the survival is inactive: 64%.
As to `COc1c(Cl)cc(Cl)cc1C(=O)Nc1cccc(-c2nc3ccccc3o2)c1C`, the survival was inactive: 109%.
In the case of `O=S(=O)(c1ccc(F)cc1)N1CCC(Oc2cccc(C(F)(F)F)c2)CC1`, the survival was inactive: 71%.
With `CCc1ccccc1NC(=O)c1cn(C)c(=O)c2ccccc12` the figure was inactive: 68%; with `COc1cccc(CNC(=O)C(=O)NCC(c2cccs2)S(=O)(=O)c2ccccc2)c1` (configuration not stated), inactive: 116%; with `COc1ccc(CCNC(=O)CCCn2c(=O)c3ccccc3n(Cc3ccccc3)c2=O)cc1OC`, inactive: 94%.
On to `CCC1(CC)Cc2ccccc2-c2nc(NN)n(Cc3ccccc3)c(=O)c21`, for which the survival is active: 48%.
